# Results published in US20230086069A1 (SYSTIMMUNE, published 2023).
# B1: SI-38E17 (tetraGNC antibody, human CD19 binding domain 21D4 at the Fab region, D2) (other)
# heavy: DVVMTQSPSTLSASVGDRVTINCQASESISSWLAWYQQKPGKAPKLLIYEASKLASGVPSRFSGSGSGTEFTLTISSLQPDDFATYYCQGYFYFISRTYVNSFGGGTKVEIKGGGGSGGGGSGGGGSGGGGSEVQLVESGGGLVQPGGSLRLSCAASGFTISTNAMSWVRQAPGKGLEWIGVITGRDITYYASWAKGRFTISRDNSKNTLYLQMNSLRAEDTAVYYCARDGGSSAITSNNIWGQGTLVTVSSGGGGSGGGGSEVQLVQSGAEVKKPGESLKISCKGSGYSFSSSWIGWVRQAPGKGLEWMGIIYPDDSDTRYSPSFQGQVTISADKSIRTAYLQWSSLKASDTAMYYCARHVTMIWGVIIDFWGQGTLVTVSSASTKGPSVFPLAPSSKSTSGGTAALGCLVKDYFPEPVTVSWNSGALTSGVHTFPAVLQSSGLYSLSSVVTVPSSSLGTQTYICNVNHKPSNTKVDKRV[omitted - human IgG1 Fc with changes]GGGGSGGGGSEVQLLESGGGLVQPGGSLRLSCAASGFSFSSGYDMCWVRQAPGKGLEWIACIAAGSAGITYDANWAKGRFTISRDNSKNTLYLQMNSLRAEDTAVYYCARSAFSFDYAMDLWGQGTLVTVSSGGGGSGGGGSGGGGSGGGGSDIQMTQSPSTLSASVGDRVTITCQASQSISSHLNWYQQKPGKAPKLLIYKASTLASGVPSRFSGSGSGTEFTLTISSLQPDDFATYYCQQGYSWGNVDNVFGGGTKVEIKGGGGSGGGGSRSLVESGGGLVQPGGSLRLSCTASGFTISSYHMQWVRQAPGKGLEYIGTISSGGNVYYASSARGRFTISRPSSKNTVDLQMNSLRAEDTAVYYCARDSGYSDPMWGQGTLVTVSSGGGGSGGGGSGGGGSGGGGSDVVMTQSPSSVSASVGDRVTITCQASQNIRTYLSWYQQKPGKAPKLLIYAAANLASGVPSRFSGSGSGTDFTLTISDLEPGDAATYYCQSTYLGTDYVGGAFGGGTKVEIK
# light: AIQLTQSPSSLSASVGDRVTITCRASQGISSALAWYQQKPGKAPKLLIYDASSLESGVPSRFSGSGSGTDFTLTISSLQPEDFATYYCQQFNSYPFTFGPGTKVDIKRTVAAPSVFIFPPSDEQLKSGTASVVCLLNNFYPREAKVQWKVDNALQSGNSQESVTEQDSKDSTYSLSSTLTLSKADYEKHKVYACEVTHQGLSSPVTKSFNRGEC
# notes: also called control antibody; a human anti-CD19 antibody (21D4)
# Target: T1, human CD19 on cells (CD20+ B cells of human PBMC; Raji lymphoma cells) (human, UniProt P15391 20-556)
# T1 sequence (looked up): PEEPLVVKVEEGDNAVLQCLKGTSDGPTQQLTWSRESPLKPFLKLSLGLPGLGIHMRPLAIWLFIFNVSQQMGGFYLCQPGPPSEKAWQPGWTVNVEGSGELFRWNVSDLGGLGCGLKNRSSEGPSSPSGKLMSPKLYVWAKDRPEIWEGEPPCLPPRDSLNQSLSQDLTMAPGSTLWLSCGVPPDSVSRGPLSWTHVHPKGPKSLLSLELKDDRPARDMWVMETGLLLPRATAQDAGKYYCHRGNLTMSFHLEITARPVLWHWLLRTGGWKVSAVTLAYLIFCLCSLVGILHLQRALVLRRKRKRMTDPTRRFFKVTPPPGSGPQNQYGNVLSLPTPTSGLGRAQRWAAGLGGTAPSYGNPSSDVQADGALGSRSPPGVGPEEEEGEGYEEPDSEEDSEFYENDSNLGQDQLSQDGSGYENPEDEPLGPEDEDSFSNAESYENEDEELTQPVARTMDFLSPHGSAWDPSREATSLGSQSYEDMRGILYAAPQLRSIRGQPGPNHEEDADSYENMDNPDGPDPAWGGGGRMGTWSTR
# Assay: cell-based or functional assay
binder,measurement,value
B1,"EC50 (pM), re-directed T cell cytotoxicity: cytolysis of Raji cells by human CD8 T cells",2.1 pM
